SMILES strings stand for the structures. Some of the results follow.

The source of these data is paper PMC12040169 (PLOS Biology, 2025).

The test system of the assay is T1, C. trachomatis L2/434/Bu expressing GFP (CTL2-GFP).
T1 construct: L2/434/Bu GFP intracellular growth in HeLa cells
Further details: species or system HeLa; C. trachomatis total inclusion area by high-content imaging, normalised to DMSO. The following applies: total inclusion area; 28.5 h, 10 µM; inhibitor. An outline of the steps:
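Post-fluorescence-read fixation, DNA staining with Hoechst and high-content imaging; GFP inclusion area and number per well, and nuclei counts, used as proxies for bacterial growth and host viability.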
On to `O=C(C1CC=CCC1)N1CCCC(c2[nH]ncc2-c2ccncc2)C1` (centres unmarked) [CBK284198], for which the “% of control remaining” value is recorded as 54.1688.
As for `CCC(CN1CCCCC1)n1cncc1-c1cn(C)nc1C` (centres unmarked) [CBK281460], the figure is 110.411; as for `O=C(Cc1c(O)c2ccccc2[nH]c1=O)NCc1ccccc1Cl` [CBK160320], 88.8379.
In the case of `N=c1n(CC(=O)O)c2ccccc2n1Cc1ccccc1Cl` [CBK262917B], the “% of control remaining” value is recorded as 81.53.
With `Cc1ccsc1CN1CCCCC1CO` (centres unmarked) [CBK026348] the figure was 114.183; with `O=C(NCC1(CCO)CC1)c1c[nH]nc1-c1cc2ccccc2o1` [CBK306163], 48.7394.
With `Nc1nonc1-c1nc2ccccc2n1Cc1cc2c(cc1Br)OCO2` [CBK267961] the figure was 92.5712.
For the compound `CC(C)(C)C(=O)NCc1ccc(C(=O)CSc2n[nH]c(=O)n2C2CC2)s1` [CBK295653], the “% of control remaining” value worked out at 101.947.
For the compound `CCCC/C=C/c1nccnc1NCc1ccc2c(c1)OCO2` [CBK037304], the “% of control remaining” value was 131.136.
As for `Cc1nnc([C@H]2CCN(Cc3cccs3)C2)o1` [CBK289393], the figure is 102.068; as for `Cc1ccccc1OCC1CCCN(C(=O)C2CC(=O)OC2(C)C)C1` (centres unmarked) [CBK282062], 116.174; as for `Cc1ccc(Cl)cc1NC(=O)CC(C(=O)O)N(C)C` (centres unmarked) [CBK267105], 95.2031.
With `CC(=O)NS(=O)(=O)c1ccc(NC(=O)c2cn(-c3ccccc3)nc2-c2cccs2)cc1` [CBK296125] the figure was 96.2614.
Regarding `O=C1CC2(CCCCC2)C(C(=O)O)N1` (centres unmarked) [CBK009895], the “% of control remaining” value is listed as 50.8862.
With `O=C(CNC(=S)NC(=O)c1ccc(Br)o1)c1ccccc1` [CBK265310] the figure was 95.7186.
As for `NC(=O)CN(CC(N)=O)S(=O)(=O)c1ccccc1` [CBK262490], the figure is 82.7421; as for `COc1cc2c(cc1OC)CN(/C=N/c1sc3c(c1C#N)CC(C)(C)NC3(C)C)CC2` [CBK262918], 104.043.
On to `CC(=O)Nc1ccc(NC(=O)CC2(CC(=O)O)CCCCC2)cc1` [CBK299816], for which the “% of control remaining” value was found to be 112.026.
Consider `O=C(NCCOc1ccccc1F)C1CC(=O)N(Cc2ccccn2)C1` (centres unmarked) [CBK304632], for which the “% of control remaining” value worked out at 56.5635.
As for `O=C(Nc1ccccc1C(=O)N1CCOCC1)C1CCN(C(=O)c2ccco2)CC1` [CBK270272], the figure is 55.9282.
As for `O=C(c1cccc(S(=O)(=O)N2CCOCC2)c1)N(Cc1ccc(F)cc1)Cc1ccco1` [CBK265885], the figure is 101.413; as for `Cc1ccc(N)c(C(=O)CCC(=O)O)c1` [CBK017815C], 29.3458; as for `CCCCNC(=S)NC1CC[C@@]2(Cc3ccc(OC)c(OC)c3)CCN(C)[C@H]2C1` (some centres unmarked) [CBK023805], 73.7725.
As for `CCCn1c(SCC(=O)N2CCN(S(=O)(=O)c3ccc(C)cc3C)CC2)n[nH]c1=O` [CBK295590], the figure is 116.562; as for `CC(CC(=O)N1CCCC(c2cc3cccnc3[nH]2)C1)n1ccnc1` (centres unmarked) [CBK285034], 66.5554; as for `CCCCSc1nc(N)cc(N2CCCC(C(=O)N3CCOCC3)C2)n1` (centres unmarked) [CBK307210], 105.869.
For the compound `Cc1ccc(CN2CCNCC2CCO)o1` (centres unmarked) [CBK269844], the “% of control remaining” value worked out at 120.356.
Turning to `COc1cc(/C=N/NC(=O)CCc2c(C)n[nH]c2C)ccc1O` [CBK262925], the “% of control remaining” value was found to be 93.3379.
As for `CSc1ccc(SC/C(N)=N/O)cc1` [CBK025411C], the figure is 62.1737; as for `Cc1c(C(=O)O[C@H]2C[C@@H](c3ccc(F)cc3)N(C)C2=O)cnn1C` [CBK283616], 98.0843; as for `FC(F)(F)c1cccc(-c2cn3ccnc3c(NCCc3ccccn3)n2)c1` [CBK066491], 66.4851.
With `COC(=O)CCc1ccc(S(=O)(=O)N2CCCN(Cc3c[nH]c4ccc(OC)cc34)CC2)cc1` [CBK062985] the figure was 87.92.
As for `N=C(N)SCC1CNC(=N)S1` (centres unmarked) [CBK260991], the figure is 92.1839; as for `COc1ccc(F)c(CN(CC(C)(C)CN)C(=O)Nc2ccc(C(C)(C)C)cc2)c1` [CBK002461C], 55.9413; as for `O=[N+]([O-])c1ccc(/C=N/n2c(S)nnc2COc2ccccc2)cc1` [CBK265240], 80.5895.
In the case of `Cc1nc(C)n(CC2CCCN(Cc3ccc(C#N)cc3)C2)n1` (centres unmarked) [CBK305082], the “% of control remaining” value stood at 63.2886.
With `Cc1cc(S(=O)(=O)N(CCC#N)Cc2ccccc2)c(C)cc1Cl` [CBK043461] the figure was 94.4327; with `NS(=O)(=O)c1cccnc1NCc1ccccc1` [CBK288448], 49.9763; with `CC(C)c1ccc(S(=O)(=O)N2CCN(c3ncnc4c3oc3ccccc34)CC2)cc1` [CBK296936], 98.9935.
On to `COc1ccc(C(=O)CCCN2CCc3c([nH]c4ccc(OC)cc34)C2)cc1` [CBK083515T], for which the “% of control remaining” value was found to be 81.9647.
Regarding `COC(=O)CCC(=O)N1CCc2c([nH]c3ccccc23)C12CCN(CCCc1ccccc1OC)C2` (centres unmarked) [CBK074952], the “% of control remaining” value amounted to 81.1537.
